The other results are listed elsewhere or left out. These are further read-outs of the screen, such as a control signal, another cell line or another target. No call is given for them.

For 39 molecules, activity change, negative = inhibition results are on record in PubChem BioAssay AID1745853 (National Center for Advancing Translational Sciences (NCATS), 2022).

Holding throughout (assay): Primary Screen for Target Class Profiling of Small Molecule Inhibitors of Methyltransferases
The target of experiment [1] is Glycine N-methyltransferase (Homo sapiens) (UniProt Q14749). The note with it: purified enzyme, MTase-Glo SAH luminescence; measured here: GNMT inhibition; at 40 µM; stronger effect = lower value. A digest of the protocol:
(§1)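 Each enzyme was reacted with SAM and its substrate, with compounds tested once at 40 uM; SAH formed was read by MTase-Glo luminescence.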

The target in experiment [2] is Guanidinoacetate N-methyltransferase (Homo sapiens) (UniProt Q14353). To be noted: purified enzyme, MTase-Glo SAH luminescence; measured here: GAMT inhibition; at 40 µM; stronger effect = lower value. A digest of the protocol: as §1
Experiment [3] addresses Histamine N-methyltransferase (Homo sapiens) (UniProt P50135). To be noted: purified enzyme, MTase-Glo SAH luminescence; measured here: HNMT inhibition; at 40 µM; stronger effect = lower value. The essentials:
as §1

For experiment [4], the target named is Nicotinamide N-methyltransferase (Homo sapiens) (UniProt P40261). To be noted: purified enzyme, MTase-Glo SAH luminescence; measured here: NNMT inhibition; at 40 µM; stronger effect = lower value. A digest of the protocol:
as §1

The target in experiment [5] is Phenylethanolamine N-methyltransferase (Homo sapiens) (UniProt P11086). The note with it: purified enzyme, MTase-Glo SAH luminescence; measured here: PNMT inhibition; at 40 µM; stronger effect = lower value. The essentials:
as §1
% is set by controls: 0 for no effect and ±100 for the full control effect.

`O=C(Nc1cccc(Cl)c1)N1CC(n2cc(COc3ccccc3)nn2)C1`: the activity change, negative = inhibition is -8% in experiment [1]; -5.92% in experiment [2]; -5.03% in experiment [3]; -12.6% in experiment [4]; -0.69% in experiment [5].
The like results for `C#Cc1cccc(Nc2ncnc3cc(OCCOC)c(OCCOC)cc23)c1` were, in that order, -30.3%, -24.3%, -31.1%, -19.7% and -22.4%.
The corresponding values for `CC1(C(=O)NC2CCCCCC2)Cn2c(cc3occc32)C(=O)N1Cc1ccccn1` (stereo unspecified) are -3.94%, 2.41%, -1.55%, -4.4% and -4.33%.
Regarding `C[C@@H](NS(=O)(=O)c1ccc(Cl)cc1)c1onc(-c2ccc(F)cc2)c1C(=O)O`, the activity change, negative = inhibition in experiment [1] is -4.52%; in experiment [2] it was -0.286%; in experiment [3] it was -1.47%; in experiment [4], -3.73%; in experiment [5], -0.421%.
The corresponding values for `O=C(Nc1ccc(F)cc1)c1ccc2cc[nH]c2n1` are -7.91%, -5.1%, -4.13%, -33.8% and -10.6%.
The corresponding values for `COc1ccc(Cn2ccc3ccc(C(=O)NO)cc32)cc1` are -4.89%, -4.98%, 9.39%, -13.8% and 0.47%.
Turning to `Cc1ccccc1N1CCN(S(=O)(=O)C[C@]23CCC(CC2NC(=O)[C@@H](N)CCS(C)(=O)=O)C3(C)C)CC1` (stereo partly specified), the activity change, negative = inhibition is 9.94% in experiment [2], -0.027% in experiment [4] and 7.95% in experiment [5].
Take `CC1(C(=O)NC2CCCC2)Cn2c(cc3ccccc32)C(=O)N1C1CCCCCC1` (stereo unspecified): the activity change, negative = inhibition was 5.53% in experiment [1]; 0% in experiment [2]; 4.52% in experiment [3]; 4.93% in experiment [4]; -1.21% in experiment [5].
The corresponding values for `C=CC(C)(O)C(O)CC1C(C)(O)C(O)C(O)C2C(C)(C)CCCC21C` (stereo unspecified) are -1.63%, -6.22%, 2.79%, -13.3% and -1.12%.
With `COc1ccc(NC(=O)N2C[C@@H]3C[C@H](C2)c2ccc(NC(=O)c4ccccn4)c(=O)n2C3)cc1`, the activity change, negative = inhibition was -8.97% in experiment [1]; -10.4% in experiment [2]; -5.12% in experiment [3]; -21.6% in experiment [4]; -12.4% in experiment [5].
The like results for `COC(=O)c1cc2n(n1)CC(C)(C(=O)NC1CCCCCC1)N(Cc1ccc(OC)cc1OC)C2=O` (stereo unspecified) were, in that order, 2.04%, 0%, -5.78%, -23.1% and 2.24%.
The like results for `CN(C)c1ccc(CCc2nc(C3CCOC3)no2)cc1` (stereo unspecified) were, in that order, -9.28%, -5.75%, -2.4%, -5.77% and 0.13%.
As for `Nc1ccc(-c2ccnc(NCCCNC(=O)c3c(Cl)cccc3Cl)n2)cc1`, the activity change, negative = inhibition in experiment [2] is -11%; in experiment [4], -33.1%; in experiment [5] it was -13.2%.
Regarding `CC1CCCCC1NC(=O)C1(C)Cn2c(nc3ccccc32)C(=O)N1Cc1cccc(Cl)c1` (stereo unspecified), the activity change, negative = inhibition in experiment [1] came out at 1.28%; in experiment [2], 4.21%; in experiment [3], 5.31%; in experiment [4], 3.66%; in experiment [5], 0.291%.
`O=C(CCn1ccc2cc(S(=O)(=O)N3CCCCC3)ccc21)NCc1ccc(Cl)cc1`: the activity change, negative = inhibition was 2.27% in experiment [1]; 0% in experiment [2]; 5.78% in experiment [3]; -1.53% in experiment [4]; 1.54% in experiment [5].
The like results for `O=C(c1ccc(C(F)(F)F)cc1)N1CCC2(CC1)CNc1ccccc1[S+](=O)([O-])N2` were, in that order, -3.39%, -3.54%, -0.98%, -4.2% and -2.87%.
`CC(=O)OC1C(C)C2C(OC3OC(CO)C(O)C(O)C3O)OC=C(C(=O)O)C2C1OC(=O)c1ccccc1` (stereo unspecified): the activity change, negative = inhibition was 0% in experiment [1]; 2.85% in experiment [2]; 2.7% in experiment [3]; -11% in experiment [4]; 4.71% in experiment [5].
`Cc1cccc(CSc2nnc3n(CCCOC(C)C)c(=O)c4cc(Cl)ccc4n23)c1`: the activity change, negative = inhibition in experiment [1] is -0.886%; in experiment [2] it was 1.67%; in experiment [3], 5.64%; in experiment [4], -6.68%; in experiment [5], 3.95%.
The like results for `CCOc1ccc(-c2cc3n(n2)CC(C)(C(=O)NC2CCCCC2)N(CCC(C)C)C3=O)cc1` (stereo unspecified) were, in that order, 3.74%, 0%, 7.28%, 3.57% and 2.33%.
The corresponding values for `CC(C)CCN1C[C@@H]2C(=O)N(CCc3ccccc3)C(=O)[C@@H]2C1` are -5.15%, -4.56%, -1.43%, -8.97% and -1.72%.
The like results for `Cc1cc(C)cc(NC(=O)CCc2nnc3n(Cc4ccccc4Cl)c(=O)c4ccccc4n23)c1` were, in that order, 0.4%, 0%, 6.31%, -5.41% and -8.37%.
Take `Cc1nc2scc(CC(=O)N3CCOCC3)n2c(=O)c1-c1cc(C)n(-c2ccc(F)cc2)n1`: the activity change, negative = inhibition in experiment [1] is -19.9%; in experiment [2], -17%; in experiment [3], -4.45%; in experiment [4], -15.8%; in experiment [5], -11.6%.
The like results for `O=C(NCc1ccc(F)cc1)[C@@H]1C[C@H](c2ccc(F)cc2)N([S+](=O)([O-])C2CC2)C1` were, in that order, -6.49%, -2.56%, -0.03%, -12% and -6.03%.
For the molecule `O=C(c1ccc(F)c(F)c1Nc1ccc(I)cc1F)N1CC(O)(C2CCCCN2)C1` (stereo unspecified), the activity change, negative = inhibition in experiment [1] is 0.431%; in experiment [2], 12.9%; in experiment [3] it was 7.41%; in experiment [4] it was -12.6%; in experiment [5], 7.78%.
As for `Fc1ccc(CN(C2=NCCN2)c2c(Cl)cccc2Cl)cc1`, the activity change, negative = inhibition in experiment [1] was -8.25%; in experiment [2], 2.81%; in experiment [3], -42.9%; in experiment [4] it was -24.4%; in experiment [5] it was 7.08%.
The corresponding values for `CC(C)c1noc([C@@H]2C[C@H](NS(=O)(=O)c3ccccc3)CN2C)n1` are -3.71%, -7.44%, -3.27%, -13.9% and -9.95%.
The corresponding values for `CC(CN1C(=O)c2nc3ccccc3n2CC1(C)C(=O)NC1CCCC(C)C1C)c1ccccc1` (stereo unspecified) are 1.84%, 0.332%, -6.02%, -1.37% and -1.15%.
The corresponding values for `CC(C)OCCCn1c(=O)c2cc(Cl)ccc2n2c(SCc3ccccc3F)nnc12` are -7.95%, 3.95%, -2.06%, -15.8% and 0.545%.
With `O=C(C1CC1)N1CCc2cc(Br)c(S(=O)(=O)NCCN3CCN(c4ccccc4F)CC3)cc21`, the activity change, negative = inhibition in experiment [1] is -9.54%; in experiment [2], 5.09%; in experiment [3], -2.95%; in experiment [4], -8.71%; in experiment [5], -3.44%.
The corresponding values for `COC(=O)c1ncn2c1C(=O)N(CCc1ccc(Cl)cc1)C(C)(C(=O)NC1CCCCCC1)C2` (stereo unspecified) are -1.14%, 0%, 5.42%, 6.41% and 2.38%.
Consider `O=C(Cn1c(=O)oc2cc(S(=O)(=O)NCc3ccccc3)ccc21)N1CCOCC1`, for which the activity change, negative = inhibition was -4.6% in experiment [1]; 5.02% in experiment [2]; -0.28% in experiment [3]; 10.8% in experiment [4]; -4.57% in experiment [5].
The corresponding values for `CCc1c2c(nc3ccc(O)cc13)-c1cc3c(c(=O)n1C2)COC(=O)[C@]3(O)CC` are -4.12%, -7.68%, -7.93%, -16.8% and -12.5%.
The corresponding values for `COc1cccc(CCC(=O)N2CCC(n3cc(-c4nc(-c5ccccc5)no4)nn3)C2)c1` (stereo unspecified) are -4.72%, -1.54%, 0.06%, -7.8% and -0.661%.
The corresponding values for `CCc1cc2c(cc1N1CCC(N3CCOCC3)CC1)C(C)(C)c1[nH]c3cc(C#N)ccc3c1C2=O` are -5.82%, 0.027%, 1.6%, -11.2% and 2.4%.
As to `CC(=O)N1CCN(C(=O)c2cc(-c3ccc(F)cc3)c3nncn3n2)CC1`, the activity change, negative = inhibition was -2.44% in experiment [1]; -2.91% in experiment [2]; 0.461% in experiment [3]; -12.3% in experiment [4]; 4.69% in experiment [5].
The corresponding values for `O=C1NC2(CN([S+](=O)([O-])c3ccsc3)C2)Oc2ccccc21` are -10.3%, -14.4%, -8.12%, -29.9% and -5.27%.
The like results for `COc1ccccc1N1CCN(C(=O)CCc2nnc3n(Cc4ccc(C)cc4)c(=O)c4ccccc4n23)CC1` were, in that order, -7.89%, 1.06%, 6.86%, 8.04% and 2.83%.
As to `CC(=O)N1CCCC1c1nnc2n1CCNC2` (stereo unspecified), the activity change, negative = inhibition in experiment [1] was -7.74%; in experiment [2], -8.09%; in experiment [3] it was -8.65%; in experiment [4] it was -8.57%; in experiment [5], -17.3%.
The like results for `CCc1cccc(N2C(=O)c3cc(-c4ccco4)nn3CC2(C)C(=O)NC2CCCCCC2)c1` (stereo unspecified) were, in that order, -5.26%, 1.74%, -2.65%, -8.1% and -3.62%.
